# Measurements published in PubChem BioAssay AID686971 (National Center for Advancing Translational Sciences (NCATS), 2013).
# About 7,500 (2.1%) of roughly 360,000 compounds were called active. Inconclusive results, whose numbers are uncertain, are shown with a selection of clear calls. Calls follow the shape of the dose curve; as a rule, active = well fitted cell-killing curve with a large enough effect; inconclusive = small, poorly fitted or top-dose-only effect, or effect the other way, or another doubt; inactive = no such curve, though single readings can be large or run the other way. No potency is given beside an inconclusive call; the fits are too rough.
# Test: qHTS for induction of synthetic lethality in tumor cells producing 2HG: qHTS for the HT-1080-IDH1KD cell line
# Details: HT-1080 IDH1 knockdown viability, ATP luminescence, 48 h; series mostly up to 46.1 µM
# Procedure, shortened: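 IDH1KD HT-1080 cells, 750/well, RPMI + 5% FBS; compound pinned after 2 h settling; 48 h, 37 °C; CellTiter-Glo luminescence; % activity normalised to DMSO and no-cell wells; curves fitted, classed by r2 and efficacy.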
# Potency is read from the fitted curve at half-maximal effect; tags tell the direction and shape of the fitted curve.
row,SMILES,Potency
1,CCOc1ccc(NC(=O)Nc2cc(C)ccc2F)cc1,"inconclusive [cytotoxic, single point]"
2,Cc1sc2ncnc(N3CCC(C(=O)NNC(=O)COc4ccc(Cl)cc4)CC3)c2c1C,inactive
3,CC(=O)c1ccc(N2CCN(S(=O)(=O)c3cc4c(cc3C)NC(=O)CO4)CC2)cc1,"inconclusive [cytotoxic, single point]"
4,OCCCCc1nccc2c1[nH]c1ccccc12,inactive
5,COc1ccccc1CNC(=O)c1ccc2nc3[nH]c4ccccc4c3nc2c1,"inconclusive [cytotoxic, single point]"
6,N/C(=N\OC(=O)c1cccc(Cl)c1)c1ccccn1,"inconclusive [cytotoxic, single point]"
7,COC(=O)c1cc(=O)n(Cc2ccc(OC)cc2)c(=NCc2ccc(OC)cc2)s1,inactive
8,O=C(c1cc(COc2ccc(F)cc2Cl)on1)N1CCC(c2ccncc2)CC1,"inconclusive [cytotoxic, partial curve, poor fit]"
9,Cc1ccc(-c2nc3ccccc3s2)cc1S(=O)(=O)N1CCCC1,active: 10 µM
10,COc1ccc(OC)c(-c2nn(-c3ccccc3)cc2C(=O)N2CCc3ccccc3C2)c1,"inconclusive [cytotoxic, single point]"
11,Cc1ccc(CNC(=O)c2ccc(N3CCC4(CC3)CC(c3ccccc3)=NO4)c(NC(=O)c3cccc(C)c3)c2)cc1,inactive
12,O=C(OCn1ncc(Cl)c(Cl)c1=O)c1ccccc1Cl,active: 5.8 µM
13,COc1ccccc1Nc1nc(NCc2ccco2)c2ccccc2n1,active: 23.1 µM
14,COc1cccc(NC(=O)c2nn(C34CC5CC(CC(C5)C3)C4)cc2[N+](=O)[O-])c1,inactive
15,COCCNCCCOc1ccc(C(C)(C)c2ccccc2)cc1,inactive
16,COc1cc(-c2cc(NC=O)c3ncc(-c4ccc(F)cc4)n3c2)cc(OC)c1OC,"inconclusive [cytotoxic, single point]"
17,CCOC(=O)c1c(NC(=O)/C=C\C(=O)O)sc(C)c1-c1ccccc1,"inconclusive [cytotoxic, single point]"
18,Oc1ccccc1C1=NN(c2ccccc2)C(c2ccccc2)C1 (stereo not drawn),"inconclusive [cytotoxic, single point]"
19,CNS(=O)(=O)c1ccc(NC(=O)Nc2ccc3c(c2)OCO3)cc1,"inconclusive [cytotoxic, partial curve]"
20,CCOC(=O)C1(Cc2ccccc2C)CCCN(C(=O)c2cc(C3CC3)[nH]n2)C1 (stereo not drawn),inactive
21,O=c1ccc(-c2nc3cc(Cl)ccc3n2Cc2ccccc2)c[nH]1,"inconclusive [cytotoxic, single point]"
22,CCOC(=O)c1ccc(NC(=S)N2CCN(S(C)(=O)=O)CC2)cc1,inactive
23,CN(C)S(=O)(=O)c1ccc(N2CCN(S(=O)(=O)c3ccc(F)cc3)CC2)c(Cl)c1,active: 7.08 µM
24,Cc1nc2ccc(NC(=O)Cc3cccc(F)c3)cc2s1,"inconclusive [rising, partial curve, poor fit]"
25,COc1cccc(CNc2nc(C(F)(F)F)nc3ccccc23)c1,"inconclusive [cytotoxic, single point]"

row,SMILES,Potency
1,O=C1CC(c2ccc(F)cc2)Cc2nc(N3CCN(c4ccccc4)CC3)ncc21 (stereo not drawn),inactive
2,CCc1c(C)nc2ncnn2c1N1CCC(C(=O)Nc2ccc(C)cc2)CC1,"inconclusive [cytotoxic, partial curve]"
3,CC1CCCC(NC(=O)CSc2ccc(F)cc2)C1C (stereo not drawn),inactive
4,Cc1cccc(-c2nc(CN3CCCC(C(=O)NC4CCC(C)CC4)C3)c(C)o2)c1 (stereo not drawn),inactive
5,CN(c1ccc(C(=O)N2CCCCC2)cc1)S(=O)(=O)c1ccccc1,"inconclusive [cytotoxic, partial curve]"
6,O=C1CC[C@@H](C(=O)N2CSC[C@@H]2C(=O)Nc2cccc(C(F)(F)F)c2)N1,inactive
7,COc1ccc(-c2coc3c(C(=O)NCCc4ccccc4)cccc23)c(C)c1,"inconclusive [cytotoxic, single point]"
8,CCN1C(=O)/C(=c2\o/c(=C3\C=Cc4ccccc4N3CC)c(=O)n2CC)SC1=S,"inconclusive [rising, single point]"
9,CCCCC(=O)Oc1c(S(=O)(=O)c2ccccc2)c(C)nn1C(C)(C)C,"inconclusive [cytotoxic, single point]"
10,CC1(NC(=S)N(CCO)CCO)CCS(=O)(=O)C1 (stereo not drawn),inactive
11,CC(=O)Nc1ccc(NC(=O)c2ccc(N(C)S(=O)(=O)c3ccc(C)cc3)cc2)cc1,"inconclusive [cytotoxic, single point]"
12,O=C(Nc1cccc(Cl)c1N1CCCC1)c1ccc([N+](=O)[O-])o1,inactive
13,c1ccc(-c2ccc(-c3nc(-c4ccccn4)no3)cc2)cc1,active: 12.6 µM
14,COc1cc(C(=O)c2ccccc2C(=O)O)c(OC)c2c1CCCC2,inactive
15,Cc1cc(C)nc(SCCS(=O)(=O)Cc2ccccc2)n1,"inconclusive [rising, full curve]"
16,CCNc1nc(SCCOc2ccc(C)cc2)nc(N(C)C)n1,inactive
17,Brc1ccccc1OCCOCCOc1cccc2cccnc12,"inconclusive [cytotoxic, single point]"
18,O=C(COC(=O)Cc1ccsc1)Nc1ccc(Cl)c(S(=O)(=O)N2CCOCC2)c1,inactive
19,c1coc(CN(Cc2ccco2)c2ncnc3c2oc2ccccc23)c1,"inconclusive [cytotoxic, single point]"
20,N#Cc1ncc(Cc2ccccc2)nc1C#N,"inconclusive [cytotoxic, single point]"
21,Cc1cc2nc(-c3ccccc3)c(CC3CCCCC3)n2c(C)c1Br,"inconclusive [cytotoxic, single point]"
22,CS(=O)(=O)N1CCCC(C(=O)NCCCN2CCC(Cc3ccccc3)CC2)C1 (stereo not drawn),"inconclusive [rising, full curve]"
23,O=C(CCl)NCc1cc(-c2ccc(Cl)cc2)no1,active: 9.2 µM
24,CN(/N=C/c1cc(Br)cc(Br)c1O)c1cccc(C(F)(F)F)n1,"inconclusive [cytotoxic, single point]"
25,Cc1ccc(-c2nnn(CC(=O)N(Cc3ccccc3)C(C(=O)NC3CCCC3)c3ccncc3)n2)o1 (stereo not drawn),"inconclusive [cytotoxic, single point]"

row,SMILES,Potency
1,COCCCNc1ccn2nc(-c3cccc(OCc4ccccc4)c3)cc2n1,"inconclusive [cytotoxic, single point]"
2,O=[N+]([O-])c1nn(-c2ccc3c(c2)OCCO3)n(O)c1=NCc1ccccc1Cl,"inconclusive [rising, full curve, poor fit]"
3,CCc1nc(N2CCN(C(=O)CCl)CC2)c2c3c(sc2n1)CC(C)CC3 (stereo not drawn),active: 20.6 µM
4,CC(C)NC(=O)c1ccc2c(c1)N(Cc1ccccc1)C(=O)C(C)(C)O2,inactive
5,CC(C)CC[n+]1ccn(C2=C([O-])c3ccccc3C(=O)/C2=N\S(=O)(=O)c2ccccc2)c1,active: 11.2 µM
6,Cc1cc(C)c2cc(C(=O)N3CCN(c4ncccc4C(F)(F)F)CC3)[nH]c2c1,"inconclusive [cytotoxic, single point]"
7,C[C@H](CO)N1C[C@H](C)[C@@H](CN(C)Cc2ccc(Cl)c(Cl)c2)Oc2c(NS(=O)(=O)c3ccc(F)cc3)cccc2C1=O,"inconclusive [cytotoxic, single point]"
8,Cc1c(NC(=S)NC(=O)c2ccc(COc3ccccc3)cc2)cccc1C(=O)O,"inconclusive [cytotoxic, single point]"
9,CN(C)c1ccc(C(=O)OCC(=O)Nc2cccc(S(=O)(=O)N3CCCC3)c2)cc1,inactive
10,COc1ccc(N(C)S(=O)(=O)c2cccc3cccnc23)c(OC)c1,active: 8.91 µM
11,CC(C)(C)c1ccc(-c2csc(NNC3=NCCCCC3)n2)cc1,"inconclusive [cytotoxic, single point]"
12,O=C(COc1cccc2c1CCN(Cc1ccccc1F)C2=O)N1CCCCC1,"inconclusive [cytotoxic, partial curve]"
13,O=C(NCc1cccc(F)c1)c1cccc(OC2CCN(C(=O)C3CC3)CC2)c1,inactive
14,Cc1ccc(NC(=S)NCCSc2ccc(Cl)cc2)cc1,"inconclusive [cytotoxic, single point]"
15,Cc1ccc2c(c1)COc1c3ccc(C(=O)N[C@@H](CO)C(C)C)cc3nn1-2,inactive
16,Cc1c(C(=O)N2CCCCCC2)oc2ccccc12,"inconclusive [cytotoxic, single point]"
17,Cc1ccc(S(=O)(=O)NC(=NCC(=O)O)c2ccccc2)cc1,inactive
18,CCCCCCCCNC(C)C(O)c1ccc(SC(C)C)cc1 (stereo not drawn),"inconclusive [cytotoxic, single point]"
19,Nc1ccc(Cc2nc3cc4ccccc4cc3[nH]2)cc1,"inconclusive [cytotoxic, single point]"
20,CCOC(=O)C1=C(C)NC2=C(C(=O)CC(C)(C)C2)C1c1cccc(C)n1 (stereo not drawn),inactive
21,CCn1c(=O)n(CC)c2cc(S(=O)(=O)N3CCc4ccccc43)ccc21,"inconclusive [cytotoxic, single point]"
22,CS(=O)(=O)N1CCCCC1c1cc(C(=O)Nc2cccc3c2CCCC3)no1 (stereo not drawn),inactive
23,Cc1ccccc1-c1cc2nc(NCc3cccnc3)n(C)c(=O)c2s1,"inconclusive [cytotoxic, single point]"
